# Data: article PMC4336329 (PLoS ONE, 2015)
# Among all 310,000 compounds or so, about 14,000 (4.5%) showed an effect of 50% or more. The effect is printed as a negative number. This is one part of the list.
# Biological target: human ether-à-go-go-related gene (hERG) potassium channel (human, UniProt Q12809)
# Assay: primary screen, population patch clamp on CHO cells stably expressing hERG
# 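Also: peak tail current of the secondary pulse compared with the same well before compound.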
# Sequence of human ether-à-go-go-related gene (hERG) potassium channel (Q12809 whole entry, looked up): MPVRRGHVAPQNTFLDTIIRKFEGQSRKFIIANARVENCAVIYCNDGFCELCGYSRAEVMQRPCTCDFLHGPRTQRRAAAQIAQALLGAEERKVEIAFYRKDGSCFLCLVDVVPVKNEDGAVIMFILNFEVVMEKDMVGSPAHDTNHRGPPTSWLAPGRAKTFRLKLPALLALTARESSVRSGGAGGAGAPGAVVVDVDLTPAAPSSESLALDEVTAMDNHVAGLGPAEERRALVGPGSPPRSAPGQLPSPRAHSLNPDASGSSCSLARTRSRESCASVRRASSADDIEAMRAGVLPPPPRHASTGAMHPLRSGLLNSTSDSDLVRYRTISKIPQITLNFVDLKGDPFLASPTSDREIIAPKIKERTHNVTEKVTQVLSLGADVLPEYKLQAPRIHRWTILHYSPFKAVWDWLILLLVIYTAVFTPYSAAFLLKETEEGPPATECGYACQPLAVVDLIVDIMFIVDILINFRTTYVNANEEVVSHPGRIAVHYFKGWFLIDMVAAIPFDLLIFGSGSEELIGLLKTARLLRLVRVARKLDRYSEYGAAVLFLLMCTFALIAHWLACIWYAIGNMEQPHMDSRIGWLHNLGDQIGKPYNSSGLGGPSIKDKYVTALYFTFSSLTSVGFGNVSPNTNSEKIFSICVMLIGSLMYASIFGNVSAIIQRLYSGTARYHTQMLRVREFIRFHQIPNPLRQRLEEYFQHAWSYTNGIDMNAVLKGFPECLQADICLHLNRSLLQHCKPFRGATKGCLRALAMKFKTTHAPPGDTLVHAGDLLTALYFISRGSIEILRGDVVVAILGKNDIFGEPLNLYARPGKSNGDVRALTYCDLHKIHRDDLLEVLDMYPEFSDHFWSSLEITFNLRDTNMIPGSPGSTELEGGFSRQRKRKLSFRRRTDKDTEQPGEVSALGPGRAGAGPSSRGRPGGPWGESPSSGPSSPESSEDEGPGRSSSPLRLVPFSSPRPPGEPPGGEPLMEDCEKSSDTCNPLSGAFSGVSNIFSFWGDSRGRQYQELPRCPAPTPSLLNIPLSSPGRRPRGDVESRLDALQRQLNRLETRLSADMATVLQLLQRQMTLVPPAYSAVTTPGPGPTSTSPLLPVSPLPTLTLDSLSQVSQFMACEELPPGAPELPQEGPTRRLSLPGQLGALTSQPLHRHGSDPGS
row,Structure (SMILES),"hERG current change (%, negative = inhibition) at 10uM [%]"
1,COc1ccc(OC)c(C2=NOC(C(=O)NCc3ccco3)C2)c1 (stereo not shown),6.17
2,O=S(=O)(c1cccs1)N1CCN(CCc2ccccc2)CC1,18
3,Cc1ccc(OCC(=O)NCCC2=CCCCC2)cc1,-22.4
4,CN(C)Cc1ccccc1Sc1ccc(Br)cc1,-15.6
5,CCCc1n[nH]c2c1C(=O)C(C(=O)OC)C(C)(C)C2 (stereo not shown),-2.23
6,CCCCOP(=O)(c1ccc(N(C)C)cc1)C(O)c1ccccc1F (stereo not shown),-28
7,COc1ccc(S(=O)(=O)N2CCC(C(=O)NCCC(=O)Nc3cccc(OC)c3)CC2)cc1,7.35
8,COc1ccc(C(=O)N(C)Cc2ccc(C)o2)cc1OC1CCN(C(C)C)CC1,-4.74
9,OC(COc1ccccc1)CN1CCN(C(c2ccccc2)c2ccccc2)CC1 (stereo not shown),-69.6
10,CCn1cc(C(c2ccccc2)C(C(C)=O)[N+](=O)[O-])c2ccccc21 (stereo not shown),-10.1
11,O=C(COCC(=O)N/N=C/c1ccccc1F)N/N=C/c1ccccc1F,-54.8
12,CC(=O)Nc1ccc(S(=O)(=O)NNC(=O)COc2cccc(C)c2)cc1,20.9
13,Cc1cc2oc(C(=O)N(Cc3cccs3)C3CCS(=O)(=O)C3)cc(=O)c2cc1Cl (stereo not shown),-22.9
14,Cc1ccc(NC(=O)c2cc(S(=O)(=O)N(C)C)ccc2N2CCCC2)cc1F,-11.8
15,CC(SC1CCCC1)C(=O)Nc1ccnn1C(C)C (stereo not shown),3.55
16,CC(C(=O)O)n1c2ccccc2c2cnn(C)c(=O)c21 (stereo not shown),18.9
17,Cc1cc(OCC(=O)N2CCC(C(N)=O)CC2)c2c(C)cc(=O)oc2c1,15.6
18,CCc1nnc(NC(=O)c2oc3cc(C)c(C)cc3c2C)s1,5.05
19,FCCCOc1ccc(/C=N/OCc2ccc(Cl)cc2Cl)cc1,6.01
20,Cc1ccc(C)c(S(=O)(=O)N2CCN(C(=O)C3CC3C)CC2)c1 (stereo not shown),-0.798
21,O=C(CCN1C(=O)C2CC=CCC2C1=O)N1CCN(c2ccccn2)CC1 (stereo not shown),2.5
22,COC(=O)c1c(NC(=O)CCS(=O)(=O)c2ccccc2)sc2c1CCN(C)C2.Cl,-48

row,Structure (SMILES),"hERG current change (%, negative = inhibition) at 10uM [%]"
1,O=C(c1cccc(Oc2c(Cl)cccc2[N+](=O)[O-])c1)N1CCOCC1,-9.47
2,COc1ccc(C(=O)O/N=C/c2ccc(S(=O)c3ccc(Cl)cc3)nc2)cc1 (stereo not shown),7.36
3,CCCNC(=O)N1[C@H]2CC[C@@H]1C(C(=O)OC)=C(c1ccc(C(C)=O)cc1)C2,4.58
4,CCOC(=O)C1CCCCN1Cc1ccc(C(F)(F)F)cc1 (stereo not shown),7.75
5,O=C1c2cccc3cc(Br)cc(c23)C(=O)N1Nc1ccccc1,10.3
6,O=C(Nc1ccc(Oc2ccccc2)nc1)C1CCCCN1Cc1ccc(OCCO)cc1 (stereo not shown),-21.3
7,O=C(N/N=C/c1ccc2c(c1)OCO2)c1ccc(NS(=O)(=O)c2cccs2)cc1,11.1
8,CC1CCCC(n2cnc3cc(C(=O)O)ccc32)C1C (stereo not shown),7.52
9,CCOc1ccc(/C=N/NC(=O)c2ccccc2NC(=O)c2ccc(OC)cc2)cc1,6.3
10,CCOc1ccc2c(c1)C(NC(C)=O)C(=O)N2CCN1CCOCC1.Cl (stereo not shown),13.2
11,CC1(C)CC(NC(=O)c2ccc(Cl)cc2Cl)CC(C)(C)N1,2.81
12,CCC(C)N(C(=O)Cn1c(Cl)nc2c1c(=O)n(C)c(=O)n2C)C1CCS(=O)(=O)C1 (stereo not shown),-1.18
13,Cc1ccc2oc(C(=O)NCc3ccc(S(N)(=O)=O)cc3)cc(=O)c2c1,14.7
14,C/C(=N\NC(=O)c1nnn(-c2nonc2N)c1-c1cccs1)c1ccncc1,-2.03
15,CCOc1ccc(CNC(=O)Cn2nc(C)c3c(C)n(-c4ccc(C)cc4)nc3c2=O)cc1,-13.2
16,COC(=O)NC1(C(=O)O)CCCC1,-0.802
17,N/C(=N\OC(=O)c1cccc(Br)c1)c1ccc(Br)cc1,6.21
18,O=C(NC(=S)Nn1cnc2c(cnn2-c2ccccc2)c1=O)c1ccccc1,15.7
19,N#Cc1ccsc1NC(=O)c1cnccn1,-12.3
20,Cc1ccc(N(C(=O)c2nsc(Cl)c2Cl)C(C(=O)NC2CCCC2)c2ccc(O)cc2)cc1C (stereo not shown),9.52
21,Cc1ccc(S(=O)(=O)CC(C)(O)CS(=O)(=O)c2ccc(C)cc2)cc1,-0.571
22,Cc1nc2c(c(C)nn2-c2ccccc2)c(C)c1CCC(=O)Nc1ccc(CN2CCCC2)cc1,-61

row,Structure (SMILES),"hERG current change (%, negative = inhibition) at 10uM [%]"
1,COc1ccc(NC(=O)C(CC(=O)O)Cc2ccccc2)cc1 (stereo not shown),5.36
2,O=C(O)COc1ccccc1/C=N/NC(=O)CNC(=O)c1ccc(F)cc1,2.24
3,CCCn1c(SC(C(=O)Nc2cccc(OC)c2)c2ccccc2)nc2ccccc2c1=O (stereo not shown),2.72
4,CC(C)N=C(NC#N)SCC(=O)NC(C)(C)C,5.68
5,O=C(c1ccc2n[nH]nc2c1)N1CCN(c2ccc(C(F)(F)F)cn2)CC1,-26.7
6,COc1ccc(C)cc1N(C)C(=O)Cc1c(C(=O)O)n(C)c2ccccc12,14.1
7,Nc1nnc(SCC(=O)Nc2nnc(-c3ccccc3)o2)s1,12.1
8,CC(=O)Nc1ccc(N2C(=O)c3cccc4c(O)ccc(c34)C2=O)cc1,13.4
9,COCCCNC(=O)Cc1c(C)c2c(cc(C)c3c(C(C)(C)C)coc32)oc1=O,-32.3
10,COc1cc(C(=O)NCC(c2cccnc2)N2CCN(c3ccccc3)CC2)cc(OC)c1OC (stereo not shown),-17.3
11,CCOC(=O)Cn1nc(-c2ccc(C)cc2)ccc1=O,-25.3
12,Cc1ccc(N=C(N)N=C(N)N)cc1,16.9
13,CSc1nc(Cl)cc(N2CCOCC2)n1,13.5
14,Cc1cccc(NC(=O)COc2ccc(-c3nn(C)c(=O)c4ccccc34)cc2)c1,-28.8
15,O=S1(=O)C=C(Sc2nnc(-c3ccccc3)o2)c2ccccc21,-16.2
16,CCN(CC)Cc1c(O)c(Cl)cc2c3c(c(=O)oc12)CCCC3,-10.1
17,Cc1ccccc1NC(=O)CN1C(=O)NC2(CCCCC2)C1=O,-0.562
18,Cc1noc(C)c1C(=O)N1CCCC(N2CCN(c3cccc(C(F)(F)F)c3)CC2)C1 (stereo not shown),-35.4
19,O=C(NC(=S)Nc1ccccc1N1CCCC1)c1ccco1,-3.55
20,O=C(OCc1ccco1)c1cccnc1,7.66
21,COc1ccc(NC(=O)C2(c3ccccc3)CCCC2)cc1,47.3
22,Cc1cccc(NC(=O)CCS(=O)(=O)c2ccccc2)n1,7.86

row,Structure (SMILES),"hERG current change (%, negative = inhibition) at 10uM [%]"
1,CS(=O)(=O)N(Cc1ccc(Cl)cc1)c1ccc(C(=O)NCc2ccccn2)cc1,-47
2,Cc1cc(C(C)(C)C)cc(S(=O)(=O)NCCc2ccncc2)c1C,-18.2
3,COc1cc(CNCCN(C)C)ccc1OCc1c(F)cccc1Cl.Cl,-19.6
4,N#CC1=C(N)N2C(=C(C#N)C13CCN(Cc1ccccc1)CC3)Nc1ccccc12,-39.1
5,O=c1[nH]c(CN2CCN(c3ncccn3)CC2)nc2c(Br)cc(Br)cc12,-15.9
6,Oc1nc(-c2ccc(Br)cc2)n2ccncc12,-8.14
7,O=C(O)c1cc2ncc(-c3[nH]ncc3[N+](=O)[O-])cn2n1,18.2
8,CCN(CC(=O)NC1CCCC1)S(=O)(=O)c1ccc(Br)cc1,7.29
9,Cc1ccc(Oc2ncccc2/C=N/OCc2ccc(Cl)cc2Cl)cc1,14.7
10,Cc1ccc(-n2c(SCC(=O)Nc3ccc4c5c(cccc35)CC4)nc(O)c(C)c2=O)cc1,11
11,COc1cccc(/C=C/C(=O)OCC(=O)Nc2nnc(-c3ccccc3)o2)c1,-8.64
12,CCCCn1c(N)c(N(CCOC)C(=O)COC(=O)c2cc(CCC)c(C)s2)c(=O)[nH]c1=O,4.61
13,COc1ccc(C2(C)CC(=O)NC2=O)cc1 (stereo not shown),8.96
14,CC(=O)c1ccc(NC(=O)Nc2ccc([N+](=O)[O-])cc2)cc1,11.2
15,O=C(CSCc1cccc(Cl)c1)OCc1nc2ccsc2c(=O)[nH]1,5.41
16,Nc1nonc1-n1nnc(C(=O)N/N=C/c2cccc(Cl)c2)c1CSc1ccccc1,18.8
17,CNS(=O)(=O)c1cccc(C(=O)OCC(=O)Nc2ccccc2OC(F)F)c1,-14.5
18,O=C(CSc1nc2[nH]ncc2c(=O)n1-c1ccccc1)N1CCCCCC1,-16.4
19,O=C(NNC(=O)c1c(F)cccc1F)c1ccccc1OC(F)(F)F,7.23
20,COc1ccc(N(CC(=O)N2CCOCC2)S(C)(=O)=O)cc1,19.1
21,Cc1ccsc1C(C(=O)NC(C)(C)C)N(Cc1ccco1)C(=O)c1csnn1 (stereo not shown),6.38
22,COc1cc(NC(=O)C/C(C)=N/NC(=O)Cc2ccc(Cl)cc2)c(OC)cc1Cl,-5.68
